Biological target: T1, F-actin (in PaExoY-F-actin complex) (Oryctolagus cuniculus, UniProt P68135)
T1 construct: gene ACTA1
Settings: bound with Pi in actin nucleotide site; modelled from PDB 7AD9

## Nc1ncnc2c1ncn2[C@@H]1O[C@H](COP(=O)(O)OP(=O)(O)O)[C@@H](O)[C@H]1O [ADP-Pi]
  cryo-EM structure, 3.2 Å: F-actin, ADP-Pi and Phalloidin were adapted from PDB 7AD9
